In article PMC4336329 (PLoS ONE, 2015):
Screen size: about 310,000 compounds; about 14,000 (4.5%) showed an effect of 50% or more. The effect is printed as a negative number. The list shows a part of the results.

target: human ether-à-go-go-related gene (hERG) potassium channel (human, UniProt Q12809); experiment: primary screen, population patch clamp on CHO cells stably expressing hERG
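Note: peak tail current of the secondary pulse compared with the same well before compound.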

Sequence of human ether-à-go-go-related gene (hERG) potassium channel (Q12809 whole entry, looked up): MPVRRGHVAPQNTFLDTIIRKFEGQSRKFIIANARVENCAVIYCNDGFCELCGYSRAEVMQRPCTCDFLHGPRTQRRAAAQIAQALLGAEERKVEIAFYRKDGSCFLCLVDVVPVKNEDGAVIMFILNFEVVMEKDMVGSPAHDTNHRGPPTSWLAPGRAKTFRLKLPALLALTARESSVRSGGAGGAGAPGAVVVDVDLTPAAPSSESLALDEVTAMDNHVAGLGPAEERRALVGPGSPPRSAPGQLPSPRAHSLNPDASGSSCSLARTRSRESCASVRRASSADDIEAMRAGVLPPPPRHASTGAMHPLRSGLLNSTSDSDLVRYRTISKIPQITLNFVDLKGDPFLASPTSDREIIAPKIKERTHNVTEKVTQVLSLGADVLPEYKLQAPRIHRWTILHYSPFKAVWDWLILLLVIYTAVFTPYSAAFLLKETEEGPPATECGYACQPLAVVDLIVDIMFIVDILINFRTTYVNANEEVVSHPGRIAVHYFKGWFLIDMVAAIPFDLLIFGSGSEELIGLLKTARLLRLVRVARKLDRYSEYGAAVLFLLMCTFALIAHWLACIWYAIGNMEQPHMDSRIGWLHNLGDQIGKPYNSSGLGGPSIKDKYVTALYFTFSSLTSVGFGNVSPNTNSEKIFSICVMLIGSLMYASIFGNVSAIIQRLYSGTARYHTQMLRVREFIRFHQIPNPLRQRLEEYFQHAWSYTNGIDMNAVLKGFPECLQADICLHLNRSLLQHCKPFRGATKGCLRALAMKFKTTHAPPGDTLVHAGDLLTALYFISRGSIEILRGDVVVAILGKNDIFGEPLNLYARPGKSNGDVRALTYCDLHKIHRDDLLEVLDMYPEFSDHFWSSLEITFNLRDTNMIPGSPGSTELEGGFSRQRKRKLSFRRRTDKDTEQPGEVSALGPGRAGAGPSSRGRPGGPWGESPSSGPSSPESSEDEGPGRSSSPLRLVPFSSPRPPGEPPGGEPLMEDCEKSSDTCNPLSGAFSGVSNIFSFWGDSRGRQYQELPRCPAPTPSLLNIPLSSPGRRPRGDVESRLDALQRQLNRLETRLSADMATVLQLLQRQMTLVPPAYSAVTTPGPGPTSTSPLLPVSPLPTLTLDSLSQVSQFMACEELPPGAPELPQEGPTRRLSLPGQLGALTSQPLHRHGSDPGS

Going from `O=C(COC(=O)c1cccc(S(=O)(=O)NCc2ccccc2)c1)c1ccc2c(c1)OCCO2` to `CS(=O)(=O)c1ccc(NC(=O)C2CC(=O)N(c3ccc4c(c3)OCCO4)C2)cc1` (stereo not shown), the “hERG current change (%, negative = inhibition) at 10uM” value falls from 11.7% to 7.21%.

Going from `O=S(=O)(c1ccc(Br)s1)N1CCN(c2ncccn2)CC1` to `Cc1ccc2nc(-c3ccccn3)cc(C(=O)Nc3ccc(S(=O)(=O)N4CCOCC4)cc3)c2c1`, the “hERG current change (%, negative = inhibition) at 10uM” value rises from -3.42% to 21.7%.

Going from `CCOC(=O)c1c(C)n(C)c2c(C)cc(O)c(OC(=O)CC)c12` to `CCOC(=O)c1c(C)[nH]c(C)c1C(=O)CSc1nnc(-c2ccco2)n1Cc1ccccc1`, the “hERG current change (%, negative = inhibition) at 10uM” value falls from 7.65% to -19.3%.

Compared with `COc1ccccc1NC(=O)CSc1nnc(C2CCCCC2)o1`, `Cl.O=C(CCN1CCCCCC1)Nc1ccccc1F` is lower in “hERG current change (%, negative = inhibition) at 10uM” value: -2.31% for the first, -4.4% for the second.

First: Cc1ccc(NC(=O)c2nc[nH]c2C(=O)NCC(=O)OC(C)(C)C)cc1
Second: CCOc1ccc(NC(=O)NNC(=O)c2ccc(CC)s2)cc1
The “hERG current change (%, negative = inhibition) at 10uM” value of the first is lower: -4.82% for the first, 23.3% for the second.

First: CNCc1ccccc1OCC(=O)Nc1ccccc1
Second: COc1ccccc1N1CCN(CCCNC(=O)Nc2ccccc2)CC1
The “hERG current change (%, negative = inhibition) at 10uM” value of the first is higher: 14.7% for the first, -59.8% for the second.

Going from `COCCN(C(=O)COC(=O)C1CC1)c1c(N)n(Cc2ccccc2)c(=O)[nH]c1=O` to `CCOC(=O)CN1C(=O)N[C@@H](CCc2ccccc2)C(C(=O)OC)=C1C`, the “hERG current change (%, negative = inhibition) at 10uM” value rises from -8.45% to -3.41%.

First: CC1(C)CC[C@]2(C(=O)O)CC[C@]3(C)C(=CCC4[C@@]5(C)CC[C@H](O)C(C)(C)C5[C@H](O)C[C@]43C)[C@@H]2C1 (stereo partly shown)
Second: CC(C)CC(NC(=O)CCCNC(=O)CCC(=O)OC1O[C@H]2OC3(C)CC[C@H]4[C@H](C)CCC(C1C)C24OO3)C(=O)O (stereo partly shown)
The “hERG current change (%, negative = inhibition) at 10uM” value of the first is higher: 5.67% for the first, 1.34% for the second.

First: Cc1ccsc1/C=N/Nc1nc2ccccc2s1
Second: COc1cc(/C=N/Nc2ccccc2)ccc1OC(=O)c1cccs1
The “hERG current change (%, negative = inhibition) at 10uM” value of the first is lower: -14.7% for the first, 1.68% for the second.

Going from `O=C1COc2ccc(C(=O)CSc3nnc(NCc4ccccc4)s3)cc2N1` to `O=C(O)COc1ccccc1/C=N/NC(=O)CSc1nnc(SCc2ccccc2)s1`, the “hERG current change (%, negative = inhibition) at 10uM” value rises from -9.48% to 5.64%.

First: CCCCCc1cc(=O)oc2c(C(CCN3CCCCC3)c3cc(OC)c(OC)c(OC)c3)c(OC)cc(OC)c12 (stereo not shown)
Second: COc1cccc(CN(C)C(=O)c2ccc(S(=O)(=O)N3CCCC3)cc2)c1OC
The “hERG current change (%, negative = inhibition) at 10uM” value of the first is lower: -74.6% for the first, -17.7% for the second.

Going from `CCOC(=O)c1ccc(NC(=O)c2ccc(CN3CCc4ccccc4C3)cc2)cc1` to `Cc1c(/C=N/NC(=O)c2ccc(O)cc2)c2ccccn2c1C(=O)c1ccc(F)cc1`, the “hERG current change (%, negative = inhibition) at 10uM” value rises from 13.3% to 16.7%.

First: O=C(CCc1n[nH]c(=O)[nH]c1=O)N/N=C/c1ccco1
Second: CCOc1ccc2ccccc2c1/C=N/NC(=O)c1c(C)cc(C)[nH]c1=O
The “hERG current change (%, negative = inhibition) at 10uM” value of the first is higher: 21% for the first, 0.637% for the second.

Compared with `Cc1nn(-c2ccccc2)c2nc(C(Cl)(Cl)Cl)[nH]c(=O)c12`, `O=C(CSc1nc2ccccc2n1-c1ccccc1)Nc1ncc(Cl)cc1Cl` is lower in “hERG current change (%, negative = inhibition) at 10uM” value: 17% for the first, 12.1% for the second.

First: O=C(Cn1nc(Cc2cccnc2)c2ccccc2c1=O)NCCCN1CCCC1=O
Second: O=C(NCCCN1CCCC1=O)c1ccc2c(=O)n(-c3ccc(F)cc3)c(=S)[nH]c2c1
The “hERG current change (%, negative = inhibition) at 10uM” value of the first is lower: -7.52% for the first, 11.5% for the second.

Going from `COc1ccc(CCN(/C=C2\Sc3ccccc3C2=O)C(C)=O)cc1OC` to `COc1ccc(NC(=O)C(OC)c2ccccc2)cc1Cl` (stereo not shown), the “hERG current change (%, negative = inhibition) at 10uM” value rises from 6.92% to 15.4%.

Compared with `c1ccc(-c2cc(N3CCCCC3)nc(-c3ccccc3)n2)cc1`, `O=C(NC1(C(F)(F)F)N=C(c2ccccc2)NC1=O)c1ccccc1` (stereo not shown) is higher in “hERG current change (%, negative = inhibition) at 10uM” value: 6.55% for the first, 9.08% for the second.

Compared with `O=c1c2ccccc2nnn1CSc1nnc(-c2cccc(S(=O)(=O)N3CCCCC3)c2)o1`, `COc1ccc(-c2nnn(Cc3nc(N)nc(N4CCCCC4)n3)n2)cc1` is higher in “hERG current change (%, negative = inhibition) at 10uM” value: -13.2% for the first, -9.06% for the second.

Going from `COc1ccc(NC(=O)CN(C)C(=O)c2cc(-c3cccs3)nn2-c2ccccc2)cc1` to `COc1ccc(-n2nc(C(=O)NCC(=O)NCc3ccccc3OC)c3ccccc3c2=O)cc1`, the “hERG current change (%, negative = inhibition) at 10uM” value falls from -2.86% to -69.5%.

Going from `Cc1c(NC(=O)C(C)OC(=O)c2ccc([N+](=O)[O-])s2)c(=O)n(-c2ccccc2)n1C` (stereo not shown) to `COc1ccc([N+](=O)[O-])cc1NC(=O)CC(C)c1ccccc1` (stereo not shown), the “hERG current change (%, negative = inhibition) at 10uM” value falls from -10.5% to -26.7%.

Going from `Cn1c(Cc2cccs2)nnc1SCC(=O)N1CCCc2ccccc21` to `Cn1cc(CN2CCC(C(O)c3cccs3)CC2)c(-c2ccccc2F)n1` (stereo not shown), the “hERG current change (%, negative = inhibition) at 10uM” value falls from -3.34% to -21.5%.

Compared with `CNC(=S)NC1(C)CCS(=O)(=O)C1` (stereo not shown), `CC(C)(C)c1ccc(C(=O)NC(=S)Nc2ccc(N3CCOCC3)cc2)cc1` is lower in “hERG current change (%, negative = inhibition) at 10uM” value: 10.2% for the first, 1.93% for the second.

Compared with `COc1ccc(C)c2sc(NC(=O)CCS(=O)(=O)c3ccccc3)nc12`, `CCc1sc(NC(=O)COC)nc1-c1ccccc1` is lower in “hERG current change (%, negative = inhibition) at 10uM” value: 10.6% for the first, -8.7% for the second.

Compared with `Cc1ccc(S(=O)(=O)n2nc(-c3ccco3)nc2N)cc1`, `Cc1ccc(S(=O)(=O)N2CCN(C(=O)C(F)(F)F)C2c2ccc(N(C)C)cc2)cc1` (stereo not shown) is higher in “hERG current change (%, negative = inhibition) at 10uM” value: -0.275% for the first, 12.6% for the second.

Going from `CN1CCN(CC(O)COc2ccc(Cl)cc2)CC1.Cl` (stereo not shown) to `CN1CCN(CCCN(Cc2cccs2)C(=S)Nc2ccc(Cl)cc2)CC1`, the “hERG current change (%, negative = inhibition) at 10uM” value falls from -12.5% to -71.8%.

First: CSc1nc2ccc(S(=O)(=O)N(C)C)cc2s1
Second: CNc1ncc(C(=O)c2ccc(Cl)c(Cl)c2)s1
The “hERG current change (%, negative = inhibition) at 10uM” value of the first is lower: -3.62% for the first, -0.0564% for the second.

Compared with `O=C(CCc1nc2ccccc2c(=O)[nH]1)OCc1cccc(C(F)(F)F)c1`, `O=C(NC1=NCCS1)c1cccc2ccccc12` is lower in “hERG current change (%, negative = inhibition) at 10uM” value: 3.57% for the first, 2.39% for the second.

Going from `O=C(CCCN1C(=O)/C(=C\c2ccccc2)SC1=S)Nc1cccc(C(=O)O)c1` to `CC(C)CC(NC(=O)c1ccccc1NC(=O)c1ccccc1)C(=O)O` (stereo not shown), the “hERG current change (%, negative = inhibition) at 10uM” value rises from 3.27% to 8.23%.

First: NC(=O)C1CCN(C(=O)NC(=O)c2ccccc2)CC1
Second: CCN1CCc2c(sc(NC(=S)NC(=O)c3ccccc3)c2C#N)C1
The “hERG current change (%, negative = inhibition) at 10uM” value of the first is higher: 2.45% for the first, -6.15% for the second.

First: Cc1cc(C)cc(N(C(C)C(=O)NCc2ccc3c(c2)OCO3)S(C)(=O)=O)c1 (stereo not shown)
Second: COc1ccccc1CNC(=O)C1CC2Cn3c(nc4cc(C)c(C)cc43)C2N1C (stereo not shown)
The “hERG current change (%, negative = inhibition) at 10uM” value of the first is higher: 4.95% for the first, -27% for the second.

Compared with `CC1(C)C2([N+](=O)[O-])CN3CC1([N+](=O)[O-])CN(C2)C3c1ccccn1` (stereo not shown), `COc1ccc(CCNC(=O)C23CN(Cc4ccccc4)CC2C(c2ccc([N+](=O)[O-])cc2)=NO3)cc1` (stereo not shown) is lower in “hERG current change (%, negative = inhibition) at 10uM” value: 18.1% for the first, -74.8% for the second.

Going from `O=C(CC(=O)c1ccccc1O)c1ccc(F)cc1` to `O=C(CNC(=O)c1ccccc1Cl)N/N=C/C=C/c1ccccc1`, the “hERG current change (%, negative = inhibition) at 10uM” value falls from 8.24% to 7.26%.

Compared with `CN1C[C@@H]2C(c3ccc(Cl)nc3)C3(c4cccnc4)CC2(C3)[C@H]1c1ccccc1` (stereo partly shown), `Cc1cc(NC(=O)CCC(=O)N(c2cccnc2)C(C(=O)NC2CCCC2)c2ccccc2)no1` (stereo not shown) is higher in “hERG current change (%, negative = inhibition) at 10uM” value: -36.9% for the first, 14.6% for the second.

Compared with `COC(=O)CCCC(=O)Nc1c(F)c(F)c(F)c(F)c1F`, `CS(=O)(=O)Nc1ccc(C2=NN(C(=O)CCCC(=O)O)C(c3cccs3)C2)cc1` (stereo not shown) is higher in “hERG current change (%, negative = inhibition) at 10uM” value: -1.21% for the first, 7.87% for the second.

Going from `CCNC(=O)C1CC(=O)N(c2ccc(Br)cc2)C1` (stereo not shown) to `CCc1ccc(-c2nc(CS(=O)CC(=O)NC3CC3)c(C)o2)cc1` (stereo not shown), the “hERG current change (%, negative = inhibition) at 10uM” value falls from 2.64% to 2.09%.

Compared with `Oc1c(Br)cc(Br)cc1CNc1cnc2ccccc2c1`, `CN(C)c1ccc(NC(=O)Cn2ncn3c(cc4ccccc43)c2=O)cc1` is lower in “hERG current change (%, negative = inhibition) at 10uM” value: 13.1% for the first, 9.95% for the second.

Compared with `O=C(CCn1c(=O)sc2ccccc21)NCCC1=CCCCC1`, `CC(C)C[C@H](NC(=O)N1CCn2c1nc1ccccc12)C(=O)N1CCCCC1` is lower in “hERG current change (%, negative = inhibition) at 10uM” value: 8.97% for the first, -3.14% for the second.

Compared with `Cn1nc(C(C)(C)C)c(NC(=O)c2sccc2Cl)c1C(C)(C)C`, `Cn1nc(C(F)(F)F)c2cc(C(=O)O)sc21` is higher in “hERG current change (%, negative = inhibition) at 10uM” value: -5.18% for the first, 14.4% for the second.

First: CC(=O)NNC(=S)Nc1cccc(F)c1
Second: COc1cc(NC(=O)COc2ccc(Cl)cc2)ccc1NC(=O)C(C)C
The “hERG current change (%, negative = inhibition) at 10uM” value of the first is higher: 6.95% for the first, 0.827% for the second.

Going from `Cc1ccc(N2CCN(CCc3nc4cc(NC(=O)c5ccco5)ccc4n3C)CC2)cc1` to `O=C(NCC(c1ccco1)N1CCN(c2ccccc2)CC1)C(=O)NC1CCCCC1` (stereo not shown), the “hERG current change (%, negative = inhibition) at 10uM” value rises from -70.7% to 4.91%.

Compared with `CCc1nnc(NC(=O)CSc2nnc3ncccn23)s1`, `COc1ccc(-c2csc(NC(=O)CSc3nnnn3C)n2)cc1OC` is lower in “hERG current change (%, negative = inhibition) at 10uM” value: 19.2% for the first, 8% for the second.

Compared with `COc1ccccc1-n1c(=O)[nH]c2c(C(N)=O)nc(CC(C)C)nc21`, `COc1ccccc1C(=O)O/N=C(\N)c1ccccc1Cl` is lower in “hERG current change (%, negative = inhibition) at 10uM” value: 5.01% for the first, -4.6% for the second.

`Cc1ccccc1/C=N\NC(=O)c1ccccc1-n1cccc1` was tested, and the “hERG current change (%, negative = inhibition) at 10uM” value was 18.5%.
